# Source: the RNAGym collection of RNA variant scans (doi:10.7554/elife.90254)
# The source gives no read counts; variants with many changes may rest on few reads.
# B1: LINE1-mini (parent)
# chain: GGCAGAGCUCAACACAGCGUGGCAAAGUGGCUGUGGCUAGACUGCC
# Variants of: B1
# Assay: self-cleavage, relative activity (ratio to wild type); higher = more cleavage; in vitro, sequencing; the parent is a self-cleaving ribozyme
row,Variant,self-cleavage
1,A4U A24G G33C,0.04
2,A4G G7A A12G C18A C46A,0.03
3,A4U C10A G17A G29U G33U C37A,0.02
4,A4G C23U A41U,0.65
5,A4U A24U G27A C31U C37G U38G,0.02
6,A4U A12G G19A G35U C42A,0.02
7,A4U C10A A16C G19U U20A C37G,0.01
8,A4U C8A C10U C42A,0.1
9,A4U C8A A39G G40A,0.09
10,A4U A12G A26U U32G U43A G44U,0.01
11,A4G C31U C46A,0.18
12,A4G G35U U38G,0.05
13,A4U A14C A25C C31U C45A,0.01
14,A4G G19U G40U,0.05
15,A4U C10A G19A C42G,0.01
16,A4G G5A G7U C37G C45U,0.01
17,A4U A6U G29C G40U,0.12
18,A4U C8U C31G A39G,0.2
19,A4U A25U G29U,2.92
20,A4G U28A C31U,0.25
21,A4U C8U G33A,0.05
22,A4U C8U G33C,0.16
23,A4U C8U C10A A26C,0.02
24,A4G C23U A26G C31U,0.56

row,Variant,self-cleavage
1,A4U C8G C10U G40U,0.08
2,A4G G7A G19U U34A,0.32
3,A4U A6U U20C A26U C46A,0.03
4,A4G U9C G44U,0.04
5,A4G G30U C45G,0.25
6,A4U C8G C13A G21A U28G G40C,0.01
7,A4G U32A G40U,0.17
8,A4G C23G C46A,0.12
9,A4G G5A G29A,1.59
10,A4G G5U C45U,0.08
11,A4U A11U A24C A26G G33A,0.01
12,A4G G27C G30U C45A,0.23
13,A4U C8A A12U G17U,0.28
14,A4G G7A G36A G40A,0.32
15,A4G G7U A25C G35A,0.28
16,A4U C8U G22C G27C G33A G40U,0.06
17,A4U A16U G19U A41U G44C,0.01
18,A4G C37U A41C,0.02
19,A4G U20G C31U U32C,0.04
20,A4G G27C G29U,0.07
21,A4G U9C U32G,0.01
22,A4G G22C C46G,0.04
23,A4U A16U G40A,0.28
24,A4G G7C C10A A12C A14C,0.03

row,Variant,self-cleavage
1,A4G G7U G44A,0.16
2,A4U A16U A25G,0.07
3,A4G G22C C23U G30U G36U A39C,0.01
4,A4U A16C G30C,0.05
5,A4G G33A A41G,0.24
6,A4G C23U A39G,0.22
7,A4G C23U A39C,0
8,A4G U9G C31G U32A,0.04
9,A4G G29C C37U C46G,0.06
10,A4G U9C G29C U34C,0.01
11,A4G U43A G44C,0.01
12,A4U A6U C13G,0.03
13,A4G G33A C37U,0.02
14,A4G G30U G40C,0.08
15,A4U C8U A12G,0.19
16,A4G G5U U34A U43G,0
17,A4U C10A G27U G35U,0.04
18,A4U A11C G17U G21A C23U G44U,0.03
19,A4G G5C G30U G35U C45U,0.05
20,A4U A6U G21C,0.52
21,A4G G21U G29C U43C,0.27
22,A4U A24G A41U,0.13
23,A4U A6C C31G,0.02
24,A4G G35C U38A C42U,0.1

row,Variant,self-cleavage
1,A4G G17C C46U,0.32
2,A4G U9G A12G,0
3,A4G G7A C45G,0.79
4,A4U A16G G29U,0.21
5,A4U A16G G29C,0.05
6,A4U A6G U34A,0.22
7,A4U A16U G33U,0.05
8,A4U A11U U20C G21C G29A G44C C46A,0.01
9,A4G G7C C37A G40A C46G,0.04
10,A4G G22U U32G,0.04
11,A4G G19C G22U A25U U38C G40C,0.1
12,A4U A12C G21C U34A A39C C46A,0.02
13,A4G G21U G35U U38A G44U,0.01
14,A4G G7A U9C,0.04
15,A4U C8U G19C G22A G30U A39C,0.01
16,A4G U9G G19U A41C,0.09
17,A4G U9A A16C C23U,0.04
18,A4U A6C C45U,0.05
19,A4G G5C G22C U28C C37U,0.02
20,A4G G17C G21A,0.54
21,A4U A11C A12C A24G G35A,0.06
22,A4G G7C U9G C46U,0.08
23,A4U A16G G19C A24G C37A,0.01
24,A4G G21U G22U A26U A41C,0.02

row,Variant,self-cleavage
1,A4G U9G C45G,0.11
2,A4G C31A C37U,0.01
3,A4U A16U G27U,0.27
4,A4U A26C G33C,0.07
5,A4G C23G G30U,0.17
6,A4G G21A C46G,0.51
7,A4U A24G U43A,0.06
8,A4U A16G C23U G27A U38C C42G,0.06
9,A4U A24U G27A G30U,0.18
10,A4G U9G C10A G27U,0.01
11,A4G U9C C13G,0.01
12,A4G G30A G40C,0.17
13,A4U C8A G44U,0.13
14,A4G G22A A26G C37G,0.02
15,A4U C8A C18A,0.4
16,A4U C10A G29C U34A A41U C42U,0.01
17,A4G G7C A11U U28A G44U,0.02
18,A4U A25C A39G C46A,0.02
19,A4U C10A C37A C46A,0.05
20,A4G U20A G35C,0.05
21,A4G G17A U34G,0.04
22,A4G G17A U34A,0.09
23,A4G C23U A25U C37A U43A,0.01
24,A4G G5A G27U A39G G44A,0.04

row,Variant,self-cleavage
1,A4U A6U G30A G33U A39G,0.02
2,A4U A11C C13G U32G,0
3,A4U C8A G29U,0.08
4,A4G U9C A14G G22U,0.02
5,A4G G7U C15U A41U,0.42
6,A4U A6U A24C A25C,0
7,A4U C10A A16C U20C G33C C42A,0.01
8,A4G U20G G22U C23U C31A A39G,0.12
9,A4U A6G A25U G30A,0.28
10,A4G G19U U20G G27C G36A G44A,0.05
11,A4G G27A U43C,0.64
12,A4U A14G A24G G44A,0
13,A4U A6G U43G,0
14,A4G G7A G29A,0.36
15,A4G G7A G29U,0.15
16,A4G G7U G21C G22U A24G,0.04
17,A4U A41C C42G,0
18,A4U A12C A14G U34A,0.05
19,A4G G5U C10U A39U,0.04
20,A4U A12G A14C G19U A25U G27A C42A,0
21,A4U A12C G44C,0.04
22,A4G G33C U34G G35U,0.63
23,A4U A25C G29A G40U,0.11
24,A4U A12C A16U G22C G27A,0.06

row,Variant,self-cleavage
1,A4G G27U A41C,0.02
2,A4G G7C C13A A16G C31G C42U,0.01
3,A4U C10A C46U,0
4,A4U A6G G22A,0.04
5,A4U A14G G27U G33U,0.05
6,A4G G5C C23U A41C,0.07
7,A4G G7U C8G C10A G19A,0.01
8,A4G G27U G30U A39C,0.02
9,A4U A12U C13U U32G,0.12
10,A4G U20G U34A,0.09
11,A4G G19U G22A,0.31
12,A4U C8G G36A C42A,0.01
13,A4U A6C C37G,0.02
14,A4G G33C U34C A41C C42A,0.01
15,A4U A6G C10A,0.02
16,A4U A12G A25C U28C G40U,0.02
17,A4U A25G U43C,0.05
18,A4G G35A U38C,0.77
19,A4G G21C U34A U38C C46A,0.12
20,A4U A16C G35U A39C C42U,0.07
21,A4G G5C C15G C18U,0.04
22,A4U C8G A25C,0.04
23,A4G G5U G27C C37G U38C,0.04
